This is one part of the list. The list includes weakly bound sequences.
Biological target: MaxL homodimer (UniProt P61244)
Assay: universal protein-binding microarray (PBM)
Conditions: PBS-based mixture, 10 nM His-tagged protein dimer, 2% milk, 200 ng/uL BSA, 50 ng/uL salmon testes DNA, 0.02% TX-100; detection with Alexa 488 anti-His …; high values mean tight binding; most listed sequences are background and not binding sites; double strand, one strand shown

Sequence of UniProt P61244 (P61244 whole entry): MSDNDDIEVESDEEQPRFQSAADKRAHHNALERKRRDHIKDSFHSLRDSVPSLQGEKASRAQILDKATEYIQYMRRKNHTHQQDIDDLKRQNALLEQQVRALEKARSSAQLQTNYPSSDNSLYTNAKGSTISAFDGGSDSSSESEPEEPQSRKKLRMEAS

Sequence	binding signal (normalized occupancy)
ACTAATAC	0.0751
AAGAGGTA	0.0739
CGGCCCGC	0.0677
CTCGCTCA	0.0727
ACTAGAAT	0.0797
AGGATCCA	0.0741
GCTTCCCA	0.0741
ATGTGACC	0.0865
ACCATCCG	0.0823
AAATTAAA	0.0677
AAGTACGG	0.0779
GCGTGAGA	0.0965
GCGGTGAA	0.0716
AGAGCACC	0.0746
CCTGTATA	0.0836
GCCACCCA	0.0719
CCAAAGGA	0.072
GTTATTGA	0.0784
ACATAATA	0.0836
AGTAATGA	0.0801
CAGCAACC	0.0703
AACTAGCG	0.068
CAACACTA	0.0772
GCAGGAAA	0.0727
ATGGATCA	0.0812

Sequence	binding signal (normalized occupancy)
ACAGGTCA	0.0797
CCCACTAC	0.0826
TGCGAGAA	0.0792
AAACGCGC	0.0747
GCAGGGCC	0.0761
CCCAAGTC	0.0748
CAGGTATA	0.0785
CACATAGG	0.0834
CAACGAAC	0.074
TACCATGA	0.0831
CCTGTGAC	0.0823
CCGCGAAG	0.0662
ATTACGAA	0.076
GCTAAGCC	0.068
ACATTTCG	0.081
TGGAAGAA	0.0762
CTAGGAGA	0.0761
CATTGTAA	0.0824
CAACCTTC	0.0716
CAAAGAAA	0.0734
AGATTTGC	0.0766
GGGACGTA	0.0838
GAACTTGA	0.0751
AGTCTTTG	0.0698
AGGGCTGA	0.0699

Sequence	binding signal (normalized occupancy)
TGCAAGAA	0.0714
TCACTGGA	0.0697
CACGTTCC	0.096
GCCGCAAA	0.0648
AAACTGTA	0.072
ACGCGTAA	0.0882
ACTTTTGA	0.0737
GCGTGTCA	0.0867
GCCCGGAA	0.0663
GTGGCCAC	0.0892
AACGAGGA	0.088
CTGCTGTC	0.0731
AACACATA	0.0823
ATAGTGCG	0.0746
GGACAACA	0.0742
GAAGTTGC	0.0713
ATGTTTAA	0.0805
CTTAAAGC	0.0706
GCAAATAC	0.08
GAACCATA	0.0816
ACTGGAAG	0.0711
GTCTAAGA	0.0715
GCGACCGA	0.0672
GCGGATGA	0.0741
AACGATTG	0.0733

Sequence	binding signal (normalized occupancy)
AACTATCC	0.0753
AGGCCACA	0.0798
GAGTTTCC	0.069
ATGACGAC	0.0755
CACGAGCC	0.0812
CCTCCACG	0.0912
CGACCCCA	0.081
CATGTTCC	0.0892
CCGGACTA	0.0746
CTATAGAG	0.0766
TAAGGCAA	0.0748
ACTCCCGC	0.0766
GAAATCCC	0.0748
CACAAATC	0.079
CTGACCCC	0.0774
ATAAAAAA	0.0761
CCTCTTTC	0.0694
CCCCTACC	0.0822
CACACCAA	0.0763
GATCCACA	0.083
GGACTCCC	0.0701
CGGGTAGA	0.0727
CACTCTAA	0.0758
ACGGAGCT	0.0682
CATATACA	0.0889

Sequence	binding signal (normalized occupancy)
TGGTGTAA	0.0786
GACAGAAA	0.0707
ATGGACCA	0.0778
AGGCGTTG	0.0698
ACGTATAC	0.0828
TAGCATGA	0.0921
CAATTAAG	0.0717
GATGTTTA	0.0756
TCAAATCA	0.0886
ATCTGTAA	0.0823
ATAGCGCA	0.0775
TGCCGCCA	0.078
CTCTCATC	0.0763
GGCCTTAA	0.0691
GCGTACAA	0.0756
CAGTCAAG	0.074
AACACAAT	0.0794
CCTGACAA	0.0804
AGGTAACT	0.0746
ACATCGGA	0.0718
ACCGGATG	0.0731
GCGCGCAC	0.0856
CTGTGAGA	0.0719
AGTCAGTA	0.0696
CCAAATCC	0.0754

Sequence	binding signal (normalized occupancy)
CGTCAGTA	0.0677
ATGACTGC	0.0794
ACACAACT	0.0823
CCTCTGCC	0.0692
AGCGGCTG	0.0663
AGGTTGAG	0.0752
TACTTTCA	0.0733
GTTTTGTA	0.0732
CTGCACGA	0.0824
AGCACGGC	0.0739
GATTCAAA	0.0756
GCTCGCGA	0.071
AGCGTGTA	0.0952
TAAGGATA	0.0782
AAATTTAA	0.068
AAGGGTTA	0.0805
AAAACATT	0.0754
GCTAGTCC	0.0748
AGAGGACT	0.0739
CTGTCGGC	0.0682
GAAAGCTC	0.0682
CGGGCTAC	0.0692
TCGTGGAA	0.0835
GGCCTGGA	0.0719
AAATGAGC	0.0726

Sequence	binding signal (normalized occupancy)
GCTTAGCC	0.0683
GCGAGCGC	0.0707
AGCGGGAT	0.0762
ATACCGAT	0.0749
GGGGTTAA	0.0752
TATAAAAA	0.0767
AACTAGCA	0.0748
AGTCTATG	0.0714
GGCCGCCA	0.0741
GGGATTCA	0.0764
CCAACACA	0.0797
GTGGATGA	0.0862
ATAGGAGG	0.0826
GACACGTA	0.0792
CGTAAAGC	0.0697
CGTTGCTC	0.0718
ATTGGAAA	0.0724
CTAGATCC	0.0812
ATCGATTC	0.0767
AAGGAAGA	0.0722
CTTGTTCC	0.0733
CTTATGTA	0.0786
GGGTTGCA	0.0752
AATCGCTG	0.0721
TGCATCCA	0.0906

Sequence	binding signal (normalized occupancy)
CTTTCAGC	0.0711
CAGTGAAC	0.08
AGTGACCC	0.0751
ACTAGCAG	0.0664
GCTGTAAC	0.0745
AGTGTGAA	0.0757
CCGTGGCA	0.077
AGTGTGAC	0.089
ATGTTGAA	0.0794
AGAAGAAT	0.0735
CGGCTACC	0.0633
CTGAATGC	0.073
GCTACGAC	0.078
CAGCTTAC	0.0732
CCAAGGTC	0.0691
CCATGGGG	0.0949
ACTTTCTC	0.0765
ACGGTTTC	0.0746
CACCGGCA	0.0736
ACTGATTG	0.0757
TAGACCAA	0.0741
CAGAGTAC	0.0685
TTTCGAAA	0.0664
ATGTTGCA	0.0888
ACTGCATC	0.0762

Sequence	binding signal (normalized occupancy)
CTGATTGC	0.0801
AGCTAAAC	0.0677
ACATCGAA	0.0799
GGAGTTTA	0.0748
CTCCATGA	0.0798
CCTCGGTC	0.0723
ACAATGAG	0.0811
GGATGACA	0.0813
ACTCCTCA	0.0762
CCACGGCC	0.0722
CTCTAGAG	0.068
GCTCTTGA	0.072
CACCGCGA	0.0739
TAGAAAGA	0.0725
CCTATTAC	0.0809
ATACCCCA	0.0851
TCAGGAGA	0.0762
GACCGCGA	0.071
CCATTGTC	0.0734
GATGTGAA	0.0819
CACTTCTG	0.0775
CTCTTCCC	0.0807
CACATTCC	0.0845
TGGACCAA	0.076
TCCCAACA	0.0757

Sequence	binding signal (normalized occupancy)
ATCGCCTG	0.0729
GCGTTCTA	0.0752
AGACAAGA	0.076
AGCCGGCG	0.0676
GCAGAAAA	0.073
AAAACGTG	0.122
ACCCTACT	0.079
ACACTTCC	0.0765
CAAACCCA	0.0843
AGGCGGGC	0.0725
AACTAGTA	0.0766
CACAGTCC	0.0729
AAAGCGAG	0.0681
CGGGTTTA	0.0753
AATCGAAC	0.0797
CATTGGAA	0.0787
GCGGTACA	0.0733
ACGCTTCA	0.0799
CGTCTAAC	0.0695
AATGGACA	0.0787
ACATCCAC	0.0907
GCATTGGA	0.0838
AGAATTGG	0.0713
CGGCTCGC	0.0654
CGTCACCA	0.0731

Sequence	binding signal (normalized occupancy)
GCGCCGAC	0.0666
CGAGATAC	0.0772
AAAGAGCT	0.0673
CACCCAGA	0.0683
CTAAACTC	0.0725
TAAGCTCA	0.0758
CAAACACA	0.0888
AATATAAA	0.0774
GATAAGAA	0.0735
AGTGTCGC	0.0694
AGACTTTC	0.0728
CGTCTCGC	0.0696
ATGCCGGG	0.0708
CTCACCAA	0.076
TCGATGCA	0.0793
CGAATTGA	0.0709
ACCAGTTG	0.0731
ACGGGCGA	0.0685
AAAGCCAC	0.0794
AGGCCCGA	0.0666
CACCCGGG	0.0702
CCCACGTA	0.0823
AACTTTCT	0.0728
AGTACTCG	0.0711
GGCAGACC	0.0717

Sequence	binding signal (normalized occupancy)
GCGCAACC	0.0764
CCGACTAC	0.0708
CGGTCCCA	0.0694
ACGCCTAT	0.0801
AATGTGGC	0.0898
CTGGTTGC	0.071
CATTAGAG	0.0766
CACAAAGA	0.0729
AAGGTTAC	0.0726
AGCAATCG	0.0715
CCTACTGA	0.0734
ATATATAG	0.0861
GAACCGTA	0.0741
CCCGTTGA	0.0706
AATGGTCA	0.0816
CCTGGACG	0.0787
GTTTCCTA	0.0787
CCGTGCAA	0.078
CTTATCCA	0.0789
GCGCACAA	0.0724
ATTCTATC	0.0792
AGAAGAAG	0.0699
GAATCAAC	0.0782
AGTAGACA	0.0752
AACTCCCT	0.0751

Sequence	binding signal (normalized occupancy)
AAAGGGGG	0.0759
CTTGGTGC	0.0767
GCGACACC	0.071
GGTTCAGA	0.0752
AGGATTGA	0.0743
CTCCAGTC	0.0721
GTGAGATA	0.0858
AACATTAT	0.0851
ACGGTTAC	0.0714
AACAGTCC	0.072
AAGACCCT	0.07
ACCCATTA	0.0779
AGAAGGTA	0.0772
GAATAGAA	0.0754
AAGAACCT	0.0744
AGATATTC	0.0788
CGTTTCGA	0.0673
ATTGCAAC	0.0742
AGACGAAA	0.0748
CTCTAGGA	0.0722
CGCCACCC	0.0855
CCCGTTTC	0.0701
GACGGGTA	0.0755
CCGAAGGC	0.0646
CGCGTCCA	0.072

Sequence	binding signal (normalized occupancy)
ATACTACG	0.0766
GACAGCAA	0.0729
AATGCCGG	0.068
GGACGGAA	0.0748
CCGGAAGA	0.069
AGTTGCCG	0.0725
ACATACCG	0.0771
GTTTTGGA	0.0787
ACCCAGGC	0.069
GCCTCACA	0.0782
CTCCAGTA	0.0743
AGAATAAG	0.0779
AAGTGCGC	0.0714
ATTCTTCA	0.0741
AAGGACGT	0.0736
CAGTATTC	0.0769
GAATGAGA	0.0744
CACGTGAA	0.231
GGTAGCAA	0.0775
